Source: PMC6451091
Some of the results follow. For part of these data: At the low end of the ranking the order means little. For part of these data: The protein was read in a cell extract, so binding may be indirect.

Experiments:
Settings in all cases: 20 mM HEPES pH 7.9, 100 mM NaCl, 1 mM DTT, 0.2 mg/mL BSA, 0.02% Triton X-100, 2% milk, 0.4 mg/mL salmon testes DNA; 1 h; temperature not stated; high values mean tight binding; double strand, one strand shown; sequences stand for … in GCCTAGCAC…GTGCTAGGTCTTGATTCGCTTGACGCTGCTG
PU.1 (IVT) = PU.1 (IVT) (UniProt P17947); test: protein-binding microarray (PBM)
[1] = target: PU.1 (endogenous, THP-1 nuclear extract) (UniProt P17947); test: nuclear extract protein-binding microarray (nextPBM)
[2] = target: T1, FLI1 (endogenous, THP-1 nuclear extract) (UniProt Q01543); test: as above
T1 sequence: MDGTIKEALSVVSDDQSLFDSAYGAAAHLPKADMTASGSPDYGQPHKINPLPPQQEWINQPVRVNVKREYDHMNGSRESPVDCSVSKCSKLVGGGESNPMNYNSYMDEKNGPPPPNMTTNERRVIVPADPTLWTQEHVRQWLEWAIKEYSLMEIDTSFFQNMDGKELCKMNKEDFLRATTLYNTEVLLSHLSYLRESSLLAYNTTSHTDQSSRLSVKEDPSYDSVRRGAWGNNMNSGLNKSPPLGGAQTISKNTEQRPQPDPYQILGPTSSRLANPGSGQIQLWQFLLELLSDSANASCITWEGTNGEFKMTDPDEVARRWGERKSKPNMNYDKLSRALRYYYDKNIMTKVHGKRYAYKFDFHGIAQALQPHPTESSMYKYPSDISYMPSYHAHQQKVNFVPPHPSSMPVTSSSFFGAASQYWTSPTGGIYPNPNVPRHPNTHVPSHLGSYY

Row | Sequence | binding signal (PU.1 (IVT)) [z-score] | binding signal [1] [z-score] | binding signal [2] [z-score]
1 | GGAAAGGGGAAGTCAGAAAG | 6.32 | 6.82 | 2.86
2 | GGTCTGAGGAAGTGCACTTT | 3.16 | 3.03 | 1.54
3 | CAAATAAGGAACTGATGCGG | 4.45 | 4.09 | 0.823
4 | GAGAAAGGGAAGTGGCTCAG | 4.51 | 4.93 | 2.29
5 | AGGAAGGGGAAGTGGTTCGT | 5.78 | 6.25 | 3.22
6 | AAATTAAGGAACTGAAAAAC | 3.96 | 4.04 | 0.898
7 | GGTAAGAGGAAATGAGGAAA | 4.05 | 3.55 | 2.89
8 | AGAAAGAGGAAGTCATCACT | 7.59 | 7.37 | 4.08
9 | AAGAAGGGGAAGTGGGCTGG | 5.66 | 6.17 | 2.65
10 | ACAAAAAGGAACTCTGCCCC | 1.86 | 1.41 | 0.674
11 | TGGGGGAGGAAGTGAGAGAC | 3.27 | 2.96 | 2.74
12 | TCATTAGGGAAGTGAAGCCC | 3.63 | 4.07 | 1.34
13 | TTGAGGAGGAAGTGCATGTA | 4.35 | 4.26 | 2.73
14 | TAAAAGAGGAAGTGCATTCA | 8.5 | 7.49 | 4.66
15 | GATAAGAGGAAGTCTTCTGT | 5.71 | 6.29 | 3.12
16 | AGCAAAAGGAAGTGAAAAAT | 2.86 | 2.29 | 2.51
17 | AATAAAAGGAACTGGCTAGA | 2.53 | 2.19 | 0.659
18 | AAAATAGGGAAGTGGGAAAC | 7.4 | 6.79 | 3.38
19 | GAAAAGAGGAAGTCAAACTG | 7.89 | 7.18 | 4.53

Row | Sequence | binding signal (PU.1 (IVT)) [z-score] | binding signal [1] [z-score] | binding signal [2] [z-score]
20 | AAGCAGAGGAAGTGAGATTT | 3.71 | 3.01 | 2.88
21 | ACAAAAAGGCACTGTGCCCC | -0.199 | -0.391 | -0.876
22 | GAAAGGAGGAACTGTCCTTT | 4.32 | 4.07 | 1.58
23 | CAAAAAGGGAAGTGGTTGCT | 6.85 | 6.82 | 2.83
24 | TAAAGGAGGAAGTGGCTTAG | 5.97 | 6.55 | 3.28
25 | AAAAACAGGAAGTCACAATA | 7.53 | 7.13 | 4.67
26 | CTAGAGAGGAAGTGTGGTTA | 3.73 | 3.74 | 3.04
27 | TTAAAGAGGAAGTGCAACCA | 7.02 | 7.02 | 3.55
28 | AAAAAGAGGAAGGGTGGCTG | 4.91 | 5.24 | 1.87
29 | AAAAGAAGGAAGTGAGAAAT | 5.17 | 5.66 | 2.4
30 | GAAGAGAGGAAGTGAAATTG | 5.29 | 5.14 | 3.11
31 | AAAAAAAGGAACTGGCTAGG | 4.38 | 4.29 | 1.18
32 | CAATAAAGGAAGTGGAGACA | 2.96 | 3.37 | 2.67
33 | GGAAAGAGGAAGTGAGGTGG | 7.61 | 7.13 | 4.22
34 | GCAGAGGGGAAGTGACATCT | 4.04 | 4.32 | 2.18
35 | AAAAAGAGGAAGAGAGAAAA | 5.63 | 6.25 | 2.14
36 | CAAAAAGGGAAGTCGATGCT | 6.3 | 6.39 | 2.86
37 | AAAAAAAGGAAGTGCTCAAG | 6.42 | 6.56 | 2.75
38 | CCAAGGGGGAAGTGGGAGGA | 3.4 | 4.26 | 2.02

Row | Sequence | binding signal (PU.1 (IVT)) [z-score] | binding signal [1] [z-score] | binding signal [2] [z-score]
39 | CAAATGAGGAACTCATGCGG | 5.49 | 6.26 | 1.56
40 | GAGAAAGGGAAGTGGGTGGG | 4.21 | 4.74 | 2.28
41 | ACAAAAAGGAGCTGTGCCCC | -0.481 | -0.212 | -0.391
42 | GAAAAGAGGAAGAGTCTTAG | 5 | 5.65 | 2.18
43 | GAAAAGAGGAAGTTAAAGAA | 8.52 | 7.51 | 4.49
44 | CAGATAGGGAAGTGACACAC | 4.78 | 5.26 | 1.73
45 | GGAAACAGGAACTGTTAAAA | 4.99 | 5.14 | 2.83
46 | ACTAAAGGGAAGTGAACCTT | 3.84 | 4.18 | 2.37
47 | AAAATGAGGAAGAGATTTAG | 5.12 | 4.97 | 1.69
48 | TCAGGGAGGAAGTGGGGTAT | 3.46 | 3.45 | 2.86
49 | GGAAGGAGGAAGTGCTTTGT | 6.31 | 6.69 | 3.48
50 | CGATTGGGGAAGTGCCCGCA | 4.54 | 5.59 | 1.83
51 | GAAATGAGGAAGTGACAGAC | 7.94 | 7.23 | 3.77
52 | CTAATGAGGAACTGATGCGG | 4.39 | 4.61 | 1.05
53 | CCTTGGAGGAAGTGAGTGGG | 3.31 | 3.25 | 2.27
54 | GTAAAGAGGAAGTCAGACTG | 6.96 | 6.98 | 3.31
55 | TTTTTGGGGAAGTGAGGTTC | 5.38 | 5.87 | 1.63
56 | AAAAGGGGGAAGTGGCAACA | 5.93 | 6.07 | 3.12
57 | CCTTGGAGGAAGTGATACCC | 3.14 | 3.63 | 2.39
